Data: the supplement of paper PMC10369915
Some of the results follow. No stated cut-off is given here; in the data, active = 3.2 or more and inactive = the rest. Only a few entries rise above the background.

Experiments:
Assay in all cases: enrichment score (SH2-bound / input frequency) (ratio); bacterial display of known human phosphotyrosine sites (pTyr-Var adds point mutants) read by sequencing; higher = stronger binding; tyrosines were phosphorylated by kinases first
Settings in all cases: peptide library: pTyr-Var
[1] = target: SHP2 C-SH2 domain E139D
[2] = target: SHP2 C-SH2 domain wild-type
[3] = target: SHP2 N-SH2 domain L43F
[4] = target: SHP2 N-SH2 domain T42A
[5] = target: SHP2 N-SH2 domain T52S
[6] = target: SHP2 N-SH2 domain wild-type
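Further: displayed peptides selected on beads carrying the immobilized SH2 domain, with library peptides lacking any tyrosine serving as negative controls.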

With FAKTQYPDIFA [CRX_Y63_V66I_YF] the enrichment score [1] was inactive: 1.11, the enrichment score [2] was inactive: 0.858 and the enrichment score [3] was inactive: 1.05. The enrichment score [4] was inactive: 1.13, the enrichment score [5] was inactive: 1.24 and the enrichment score [6] was inactive: 0.987.

LGQGKYSEVFE [CSNK2A1_Y50_R47Q] was tested, and the enrichment score [1] was inactive: 0.897, the enrichment score [2] was inactive: 0.879 and the enrichment score [3] was inactive: 1.04. The enrichment score [4] was inactive: 0.937, the enrichment score [5] was inactive: 0.887 and the enrichment score [6] was inactive: 1.02.

With NHQFDYTFHWT [CSNK1A1_Y294_D297H_YF] the enrichment score [1] was inactive: 1.26, the enrichment score [2] was inactive: 1.2 and the enrichment score [3] was inactive: 1.06. The enrichment score [4] was inactive: 1.23, the enrichment score [5] was inactive: 1.14 and the enrichment score [6] was inactive: 1.08.

For PVKDGYQMAQP [CSF1R_Y873_L868P], the enrichment score [1] was inactive: 0.603, the enrichment score [2] was inactive: 0.612 and the enrichment score [3] was inactive: 0.689. For the same binder, the enrichment score [4] was inactive: 0.627, the enrichment score [5] was inactive: 0.653 and the enrichment score [6] was inactive: 0.902.

In the case of HLEKKYVHRDS [CSF1R_Y708_R710H], the enrichment score [1] is reported as inactive: 0.615, the enrichment score [2] is reported as inactive: 0.481 and the enrichment score [3] is reported as inactive: 0.515. For the same binder, the enrichment score [4] was inactive: 0.419, the enrichment score [5] was inactive: 0.682 and the enrichment score [6] was inactive: 0.61.

For SVSNNYIQTLG [CTNND1_Y174], the enrichment score [1] was inactive: 0.651, the enrichment score [2] was inactive: 0.922 and the enrichment score [3] was inactive: 0.669. The enrichment score [4] was inactive: 0.8, the enrichment score [5] was inactive: 0.918 and the enrichment score [6] was inactive: 0.693.

In the case of PKGIGYGQGAG [CSRP3_Y73], the enrichment score [1] is reported as inactive: 0.465, the enrichment score [2] is reported as inactive: 0.649 and the enrichment score [3] is reported as inactive: 0.548. For the same binder, the enrichment score [4] was inactive: 0.495, the enrichment score [5] was inactive: 0.574 and the enrichment score [6] was inactive: 0.575.

With RREQDYTNLPS [CSF1R_Y923_R921Q] the enrichment score [1] was inactive: 0.209, the enrichment score [2] was inactive: 0.213 and the enrichment score [3] was inactive: 0.151. The enrichment score [4] was inactive: 0.306, the enrichment score [5] was inactive: 0.248 and the enrichment score [6] was inactive: 0.226.

For WQQQSYLASGI [CTNNB1_Y30_D32A], the enrichment score [1] was inactive: 0.966, the enrichment score [2] was inactive: 0.8 and the enrichment score [3] was inactive: 0.867. For the same binder, the enrichment score [4] was inactive: 0.782, the enrichment score [5] was inactive: 0.857 and the enrichment score [6] was inactive: 0.937.

PKGIRYGQGAG [CSRP3_Y73_G72R] was tested, and the enrichment score [1] was inactive: 0.623, the enrichment score [2] was inactive: 0.561 and the enrichment score [3] was inactive: 0.565. For the same binder, the enrichment score [4] was inactive: 0.508, the enrichment score [5] was inactive: 0.653 and the enrichment score [6] was inactive: 0.566.

For LVKDGYQMAQP [CSF1R_Y873], the enrichment score [1] was inactive: 0.94, the enrichment score [2] was inactive: 0.845 and the enrichment score [3] was inactive: 0.878. For the same binder, the enrichment score [4] was inactive: 0.826, the enrichment score [5] was inactive: 0.815 and the enrichment score [6] was inactive: 1.03.

WQQQSYLDYGI [CTNNB1_Y30_S33Y] was tested, and the enrichment score [1] was inactive: 1.13, the enrichment score [2] was inactive: 1.13 and the enrichment score [3] was inactive: 1.09. The enrichment score [4] was inactive: 1.37, the enrichment score [5] was inactive: 1.09 and the enrichment score [6] was inactive: 1.1.

For LRIAVYHEILI [CREBBP_Y1450_T1447I], the enrichment score [1] was inactive: 1.8, the enrichment score [2] was inactive: 2.47 and the enrichment score [3] was inactive: 1.73. The enrichment score [4] was inactive: 1.39, the enrichment score [5] was inactive: 1.32 and the enrichment score [6] was inactive: 2.26.

KKHIPCREHKS [CSNK1G2_Y206_Y206C] was tested, and the enrichment score [1] was active: 4.19, the enrichment score [2] was active: 3.49 and the enrichment score [3] was active: 3.71. The enrichment score [4] was active: 3.34, the enrichment score [5] was active: 3.89 and the enrichment score [6] was active: 3.28.

In the case of ISKKIYDPIHD [CTNNA3_Y614_T616P], the enrichment score [1] is reported as inactive: 0.804, the enrichment score [2] is reported as inactive: 0.699 and the enrichment score [3] is reported as inactive: 0.789. For the same binder, the enrichment score [4] was inactive: 0.636, the enrichment score [5] was inactive: 0.814 and the enrichment score [6] was inactive: 0.835.

KKHIPYSEHKS [CSNK1G2_Y206_R207S] was tested, and the enrichment score [1] was inactive: 3.03, the enrichment score [2] was inactive: 2.93 and the enrichment score [3] was inactive: 2.46. For the same binder, the enrichment score [4] was inactive: 2.32, the enrichment score [5] was inactive: 2.59 and the enrichment score [6] was inactive: 2.75.

With GLAKGYIDPET [CSNK1G2_Y195_E194G] the enrichment score [1] was inactive: 0.679, the enrichment score [2] was inactive: 0.498 and the enrichment score [3] was inactive: 0.496. For the same binder, the enrichment score [4] was inactive: 0.414, the enrichment score [5] was inactive: 0.69 and the enrichment score [6] was inactive: 0.611.

QFPDVYAREEV [CRX_Y67_YF] was tested, and the enrichment score [1] was inactive: 1.33, the enrichment score [2] was inactive: 0.913 and the enrichment score [3] was inactive: 1.2. The enrichment score [4] was inactive: 0.854, the enrichment score [5] was inactive: 1.05 and the enrichment score [6] was inactive: 1.37.

For KKHIPHREHKS [CSNK1G2_Y206_Y206H], the enrichment score [1] was active: 5.95, the enrichment score [2] was active: 4.51 and the enrichment score [3] was active: 4.74. For the same binder, the enrichment score [4] was active: 4.2, the enrichment score [5] was active: 4.44 and the enrichment score [6] was active: 4.39.

With IPGGIYDADLN [CST4_Y35] the enrichment score [1] was inactive: 1.06, the enrichment score [2] was inactive: 0.956 and the enrichment score [3] was inactive: 1.35. For the same binder, the enrichment score [4] was inactive: 0.726, the enrichment score [5] was inactive: 0.868 and the enrichment score [6] was inactive: 0.84.

QTSTDYDIRFY [CSNK2A1_Y131_L128S] was tested, and the enrichment score [1] was inactive: 0.402, the enrichment score [2] was inactive: 0.745 and the enrichment score [3] was inactive: 0.562. For the same binder, the enrichment score [4] was inactive: 0.683, the enrichment score [5] was inactive: 0.966 and the enrichment score [6] was inactive: 0.782.

For NVSILYTASQA [CTNNA1_Y222_P219S], the enrichment score [1] was inactive: 1.16, the enrichment score [2] was inactive: 0.935 and the enrichment score [3] was inactive: 0.929. The enrichment score [4] was inactive: 1.07, the enrichment score [5] was inactive: 1.07 and the enrichment score [6] was inactive: 1.17.

With FQGRRYDCDCD [CRYGS_Y21] the enrichment score [1] was inactive: 0.529, the enrichment score [2] was inactive: 0.512 and the enrichment score [3] was inactive: 0.418. The enrichment score [4] was inactive: 0.476, the enrichment score [5] was inactive: 0.502 and the enrichment score [6] was inactive: 0.436.

For TLGPFYPSLLF [CRYAA_Y18_R21L], the enrichment score [1] was inactive: 0.66, the enrichment score [2] was inactive: 0.875 and the enrichment score [3] was inactive: 0.704. The enrichment score [4] was inactive: 0.738, the enrichment score [5] was inactive: 0.776 and the enrichment score [6] was inactive: 0.88.

With FSGKAYADEEQ [CRIM1_Y826_R831Q] the enrichment score [1] was inactive: 0.649, the enrichment score [2] was inactive: 0.659 and the enrichment score [3] was inactive: 0.651. The enrichment score [4] was inactive: 0.64, the enrichment score [5] was inactive: 0.659 and the enrichment score [6] was inactive: 0.658.

For NTEGGYRCICA [CRELD1_Y328], the enrichment score [1] was inactive: 0.781, the enrichment score [2] was inactive: 0.903 and the enrichment score [3] was inactive: 0.776. For the same binder, the enrichment score [4] was inactive: 0.521, the enrichment score [5] was inactive: 0.827 and the enrichment score [6] was inactive: 0.71.

For QTLTDYDIRFF [CSNK2A1_Y131_YF], the enrichment score [1] was inactive: 0.692, the enrichment score [2] was inactive: 0.76 and the enrichment score [3] was inactive: 0.779. The enrichment score [4] was inactive: 0.724, the enrichment score [5] was inactive: 0.701 and the enrichment score [6] was inactive: 0.895.

For WQQQSYLDSGI [CTNNB1_Y30], the enrichment score [1] was inactive: 0.94, the enrichment score [2] was inactive: 0.803 and the enrichment score [3] was inactive: 0.917. For the same binder, the enrichment score [4] was inactive: 0.867, the enrichment score [5] was inactive: 0.915 and the enrichment score [6] was inactive: 0.92.

For NCLREYVAGRF [CRB1_Y711], the enrichment score [1] was inactive: 0.898, the enrichment score [2] was inactive: 1.08 and the enrichment score [3] was inactive: 1.1. For the same binder, the enrichment score [4] was inactive: 0.779, the enrichment score [5] was inactive: 0.85 and the enrichment score [6] was inactive: 1.11.

LRTAVHHEILI [CREBBP_Y1450_Y1450H] was tested, and the enrichment score [1] was inactive: 1.77, the enrichment score [2] was inactive: 1.61 and the enrichment score [3] was inactive: 2.01. The enrichment score [4] was inactive: 1.19, the enrichment score [5] was inactive: 1.58 and the enrichment score [6] was inactive: 2.1.

In the case of LSQAKYQIRFR [CRLF1_Y272_F268S_YF], the enrichment score [1] is reported as inactive: 0.615, the enrichment score [2] is reported as inactive: 0.601 and the enrichment score [3] is reported as inactive: 0.697. The enrichment score [4] was inactive: 0.695, the enrichment score [5] was inactive: 0.721 and the enrichment score [6] was inactive: 0.542.

For SVFNNYIQTLG [CTNND1_Y174_S171F], the enrichment score [1] was inactive: 1.16, the enrichment score [2] was inactive: 1.32 and the enrichment score [3] was inactive: 1.28. The enrichment score [4] was inactive: 1.31, the enrichment score [5] was inactive: 1.28 and the enrichment score [6] was inactive: 1.16.

For WQQQSYLDLGI [CTNNB1_Y30_S33L], the enrichment score [1] was inactive: 1.27, the enrichment score [2] was inactive: 1.13 and the enrichment score [3] was inactive: 1.07. For the same binder, the enrichment score [4] was inactive: 1.5, the enrichment score [5] was inactive: 1.08 and the enrichment score [6] was inactive: 1.41.

QFPDIYAREEV [CRX_Y67_V66I_YF] was tested, and the enrichment score [1] was inactive: 1.12, the enrichment score [2] was inactive: 1.12 and the enrichment score [3] was inactive: 1.1. The enrichment score [4] was inactive: 0.874, the enrichment score [5] was inactive: 1.22 and the enrichment score [6] was inactive: 1.12.

In the case of LENSTYQYIRV [CRB1_Y760], the enrichment score [1] is reported as inactive: 0.737, the enrichment score [2] is reported as inactive: 2.89 and the enrichment score [3] is reported as inactive: 1.12. The enrichment score [4] was active: 4.72, the enrichment score [5] was inactive: 1.12 and the enrichment score [6] was inactive: 0.93.

For WQQQSYLDSVI [CTNNB1_Y30_G34V], the enrichment score [1] was inactive: 0.741, the enrichment score [2] was inactive: 0.712 and the enrichment score [3] was inactive: 0.738. The enrichment score [4] was inactive: 0.639, the enrichment score [5] was inactive: 0.907 and the enrichment score [6] was inactive: 0.833.

LENSTYQYICV [CRB1_Y760_R764C] was tested, and the enrichment score [1] was inactive: 1.26, the enrichment score [2] was inactive: 1.56 and the enrichment score [3] was inactive: 1.25. The enrichment score [4] was inactive: 1.44, the enrichment score [5] was inactive: 1.25 and the enrichment score [6] was inactive: 1.98.
